± gives the standard deviation of the averaged measurements. This is one part of the list.
test system: PfAP2-EXP AP2 domain (GST-tagged); experiment: gcPBM binding intensity (ln(normalized median fluorescence intensity)); higher = stronger DNA binding
In short: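 GST-tagged P. falciparum DNA-binding domains produced in E. coli were incubated for 1 h on an Agilent 4 × 180k array of primer-extended double-stranded 36-bp intergenic genomic probes with negative controls. Binding intensity is the highest Masliner-normalised natural-log median intensity across replicate spots of either probe orientation, with bound protein detected by Alexa488 anti-GST antibody at 488 nm.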

Row | Sequence | gcPBM binding intensity (ln)
1 | TATATATATATATACACACACATATATATATATATA [CACACA_site1346] | 9.96 ± 0.37
2 | GCATAAGAAATAAATAGTACACACATAGACACACAC [XGTACX_site3095] | 9.21 ± 0.19
3 | AAAACAAATGAGTACACACACATAAAAGTTGAAAAT [CACACA_site6238] | 8.81 ± 0.52
4 | CGCACAAAAATATACACACACACATCTATATTTATT [CACACA_site7675] | 8.75 ± 0.34
5 | TACCCATATTAATATGTGCGCATATAAAAGTCAAAC | 9.09 ± 0.47
6 | TTATATATATATAATACACACATAATAATATATTTA [CACACA_site3038] | 8.25 ± 0.4
7 | GAAATAGAAATAAAATAGGCATACAATAGAACTAAG [TGCATGCA_negctrl_site537] | 9.04 ± 0.58
8 | ATTTTTTTTATTTTTTCAATATATATATATATATAT [CACACA_negctrl_site1444] | 10.2 ± 0.19
9 | ATATATGAGCAAAAATATATAAGATAACACATAAAT [CACACA_negctrl_site167] | 8.77 ± 0.47
10 | TTATATATATATTATAGTACATATATAATATAGTAA [XGTACX_site6869] | 8.57 ± 0.85
11 | TCTCTATAAATAAATACATGCATATAATAAAGAATT [TGCATGCA_site710] | 9.04 ± 0.45
12 | AATATATAAATAAATACACACATAAAATAGAAATAT [CACACA_site1663] | 9.03 ± 0.24
13 | AAAAACAAAAAAGAAGCACACATATATATATATATA [CACACA_site8779] | 10.1 ± 0.32
14 | TATTTAAAAATATATACACACATTTTATATTATTAT [CACACA_site781] | 8.16 ± 0.38
15 | CCTTATTATTATTTTACACACGTCCTAATAAGAGGA [CACACA_site1319] | 8.68 ± 0.43
16 | AATATTATATATATGGGTACTAATTCCTTTAATTTC [XGTACX_site102] | 8.15 ± 0.3
17 | TTTATCTGATATATTACACACAAAAAAAAAAAAAAA [CACACA_site7637] | 8.19 ± 0.28
18 | TATTTTACAAAATAAGGTACGTAAATATATGGTAGG [XGTACX_site2133] | 8.97 ± 0.35
19 | AAATATCTTTTATATTGTACATATTCCTTATGTGGA [XGTACX_site7638] | 8.27 ± 0.49
20 | ATAAAACAAAAATATAAACACACATACATTGGTTTT [CACACA_site8809] | 8.16 ± 0.39
21 | ATAAAAAATAAATATATACATACATACATACATATA [XGTACX_negctrl_site507] | 8.21 ± 0.49
22 | TTTTCAAAAATATACACACACATAAATATAGGTATA [CACACA_site6506] | 8.51 ± 0.47

Row | Sequence | gcPBM binding intensity (ln)
23 | TTGATTTACTATAGATGTACGTAAAATATAAATAAA [XGTACX_site8256] | 8.66 ± 0.33
24 | AATTTAAAAGAAAAAGAAAAATAATAAACAGAAGCA [XGTACX_negctrl_site503] | 8.86 ± 0.47
25 | TATATAATATATATATGTACACATATACATTTTTAT [XGTACX_site2832] | 8.3 ± 0.17
26 | TTGTAAGAAAAACACACACACACATATATATATATA [CACACA_site795] | 10.1 ± 0.23
27 | TTTTCGGATAATAATTGTACGAAACATTTAAAAAAA [XGTACX_site8898] | 8.44 ± 0.4
28 | ACTCAAAATTATAATTGTACAAATGCTTTGTTTAAT [XGTACX_site3437] | 8.71 ± 0.53
29 | TAAATAGTTATAAAAGTGCAAAAAAAAAAAAAAAAA [GTGCAC_site9550] | 8.19 ± 0.26
30 | ATCATATATGTTATTACACACGTTATGTTATTATAA [CACACA_site2712] | 8.64 ± 0.36
31 | TATAATTTAGCTTGTGCATGCAGGTGCTACATTTGT [TGCATGCA_site217] | 9.835 ± 0.092
32 | TTAATTTCAAGTAGAAGTACTTTTATGATTGTGAGG [XGTACX_site1247] | 8.41 ± 0.6
33 | GTGCATAGATGATATACACACAATATAATAGTATGT [CACACA_site5373] | 8.48 ± 0.28
34 | GTTTCAAAATTAAACACACACAAAAAAAAAAAAAAA [CACACA_site2680] | 8.07 ± 0.58
35 | TATTATATCTTTATTATTCATCTAAAATTTGTATTT [TGCATGCA_negctrl_site233] | 8.36 ± 0.55
36 | CTATAACCTCTGTTCACACATATATCATAATTTACA [CACACA_site5446] | 8.77 ± 0.44
37 | TTTATTTTGATTTAATGTACAAATAGTAAAACAAAA [XGTACX_site4789] | 8.73 ± 0.3
38 | ACATTATATCTAAGTACACACATTAATTTTTTTTTT [CACACA_site7850] | 8.63 ± 0.37
39 | TATTTAAAAGCATATACACACAACTGGAATGAAAAG [CACACA_site6128] | 8.9 ± 0.3
40 | TTGTTTTTCTTTGAATGTACTTAATGATTTCCAATT [XGTACX_site2499] | 8.75 ± 0.44
41 | TCCATATATTTTAAAAGTACACATAAAAATTATTTA [XGTACX_site8127] | 8.41 ± 0.3
42 | AATGGAAAAATAGGCACACACACATATATACATATA [CACACA_site1298] | 8.79 ± 0.46
43 | TAAAATAAAACAAACACACACACACGGACACAAAAA [CACACA_site7754] | 8.91 ± 0.47
44 | TTTTTTTTTTATTTTGCACACTTCTAATTTAGTTCT [CACACA_site5828] | 9.16 ± 0.26

From the supplement of paper PMC11417369
